The structures appear in SMILES notation. In all, about 150,000 compounds went through this assay and about 540 (0.36%) showed an effect of 50% or more. The list shows a part of the results.

The test relates to Plasmodium falciparum. The test is described as follows: Primary screen in NF54 nanoGlo assay, in single point, at 2uM, 72h; a lower Z score goes with more inhibition. It is filed as functional, Erythrocyte. As to conditions: timepoint 72 hour.
The % Inhibition is the drop in the measured response relative to a control, in per cent. For the compound `Cc1c(C(=O)N2CCN(c3ccsc3C#N)CC2)ccc2cncn12`, the “% Inhibition” value is -8% and the Z score is on record as 1.18.

Regarding `O=S(=O)(N[C@H]1CO[C@@H](CN2CCOCC2)[C@@H]1O)c1cccs1`, the “% Inhibition” value is reported as -8% and the Z score amounted to 1.14.

On to `CCCN(C)[C@@H](C)c1nnc(-c2cccs2)o1`, for which the “% Inhibition” value is on record as -10% and the Z score was 1.54.

Regarding `CC(=O)Nc1ccc(NC(=O)CNC(C)(C)C)cc1`, the “% Inhibition” value is -2% and the Z score was found to be 0.38.

Turning to `Cc1ccc(-c2nc(-c3ccc4c(c3)[nH]c(=O)n4C3CCCC3)no2)cc1NC(=O)c1ccco1`, the “% Inhibition” value came out at 1% and the Z score is given as -0.08.

As for `CC(=O)NCCn1cnc(-c2ccccc2)c1-c1nc2ccccc2n1C`, the “% Inhibition” value was -10% and the Z score came to 1.96.

Turning to `CCc1ccc(CN2CC[C@H]3CN(C(C)=O)C[C@@]3(CO)C2)cc1`, the “% Inhibition” value is reported as -4% and the Z score is listed as 0.56.

On to `Cn1nc(C2CCCCC2)cc1NCc1cnc(C(C)(C)C)nc1`, for which the “% Inhibition” value was -13% and the Z score worked out at 1.4.

For `Cc1nn2c(=O)c3ccccc3nc2n(N)c1=O`, the “% Inhibition” value is -9% and the Z score amounted to 1.24.

As for `Cc1cc(C)c2[nH]c(C(=O)NC[C@H]3CC(Cc4ccc(F)cc4)=NO3)c(C)c2c1`, the “% Inhibition” value is listed as -2% and the Z score is given as 0.42.

Turning to `COc1ccc(-c2nn(-c3ccccc3F)cc2CN[C@@H](C)c2nc(C)sc2C)cc1`, the “% Inhibition” value is recorded as -11% and the Z score is listed as 1.62.

For `COC[C@H](C)CS(=O)(=O)N1CCC(c2ccc(Cl)cn2)CC1`, the “% Inhibition” value was -4% and the Z score is reported as 0.72.

As for `Cc1ccc(CC(=O)Nc2cccc(N(C)C(=O)Cc3ccc(C)o3)c2)o1`, the “% Inhibition” value worked out at 1% and the Z score was -0.14.

`CC(C)n1nccc1CNc1ccc(C(N)=O)c(Cl)c1`: the “% Inhibition” value is on record as -13% and the Z score stood at 1.77.

On to `CC(C)CC1(CNC(=O)[C@@H](N)[C@@H](C)O)CCC1`, for which the “% Inhibition” value was -6% and the Z score is 0.55.

With `O=C(Nc1ccc(Cl)c(Cl)c1)c1[nH]nnc1-c1cccc(Cl)c1`, the “% Inhibition” value is on record as 2% and the Z score is on record as -0.33.

On to `CC(=O)Nc1ccc(NC(=O)c2cc(CN3CCCC3)on2)cc1`, for which the “% Inhibition” value is -19% and the Z score is reported as 1.87.

As to `O=S(=O)(Nc1ccccc1)c1cc(S(=O)(=O)c2ccc(Cl)c(S(=O)(=O)Nc3ccccc3)c2)ccc1Cl`, the “% Inhibition” value is reported as -7% and the Z score stood at 1.39.

Turning to `CC1CC(NC(=O)NC2CN(Cc3ccccc3)CC2C)CC(C)O1` (centres undefined), the “% Inhibition” value is -15% and the Z score stood at 1.57.

As to `CCn1ccc(C(=O)Nc2ccc(C(=O)NC3CCCCC3)cc2)n1`, the “% Inhibition” value was -7% and the Z score is reported as 0.84.

As to `COc1ccc(-c2cccnc2O)cn1`, the “% Inhibition” value is reported as -14% and the Z score is reported as 1.35.

As for `Cc1noc(C)c1CCC(=O)NCC1CCN(C(=O)N(C)C)CC1`, the “% Inhibition” value is listed as -7% and the Z score is given as 0.76.

Take `O=C(Cn1cncn1)NCc1cnn2c1CCCC2`: the “% Inhibition” value was found to be 10% and the Z score was -1.62.

As to `CCc1nn(-c2ccc(OC)cc2)c(Oc2ccc(F)cc2F)c1CN(C[C@H]1CCCO1)S(=O)(=O)c1ccc(OC)cc1`, the “% Inhibition” value is -13% and the Z score was 2.45.

`O=S(=O)(NCc1ccnc(N2CCN(c3ccc(F)cc3)CC2)c1)c1cccnc1`: the “% Inhibition” value is given as -7% and the Z score was 0.96.

With `CN(Cc1cnccn1)C(=O)C[C@@H](c1cccc(O)c1)c1ccccc1Cl`, the “% Inhibition” value came out at 6% and the Z score is -1.23.

Consider `COc1ccc(S(=O)(=O)Oc2ccccc2CN(CC(C)C)C(=O)c2ccccc2Cl)cc1`, for which the “% Inhibition” value was found to be 19% and the Z score is reported as -2.74.

Turning to `O=C(NCC1=CCCCC1)c1[nH]nc2c1CCC2`, the “% Inhibition” value is -1% and the Z score came to 0.17.

On to `CCN1C[C@@H](C(=O)N2CCc3sc(C(=O)NC)cc3C2)CCC1=O`, for which the “% Inhibition” value is -11% and the Z score turned out to be 2.26.

For `O=C(NS(=O)(=O)C1COC1)c1cccs1`, the “% Inhibition” value was 7% and the Z score is reported as -1.11.

As to `Cc1cccc(CC(=O)N2CC[C@@H](n3c(=O)[nH]c4cccnc43)C2)c1`, the “% Inhibition” value was found to be 4% and the Z score was -0.56.

Turning to `COc1ccc(CCC(=O)N2CC[C@H](CCc3noc(C)n3)C2)cc1`, the “% Inhibition” value was 0% and the Z score turned out to be 0.04.

Regarding `O=C(NCCc1ccc(-c2ccsc2)s1)N1CCNC1=O`, the “% Inhibition” value was -10% and the Z score is reported as 1.96.

As to `Cn1cc(Br)cc1C(=O)N1CC(O)(C2CC2)C1`, the “% Inhibition” value amounted to 35% and the Z score is -4.75.

As to `CC(=O)N1CCCN(C[C@@H]2OC[C@H](NC(=O)c3ccc(F)c(Cl)c3)[C@H]2O)CC1`, the “% Inhibition” value was -18% and the Z score is listed as 3.43.

For the compound `NC(=O)c1cc([C@@H]2CCCCN2C(=O)c2cc(-c3ccccc3)on2)n[nH]1`, the “% Inhibition” value is on record as 20% and the Z score is on record as -2.64.

Regarding `CC1(C)Cc2ccc(C(=O)NC(C)(C)c3ncccn3)cc2O1`, the “% Inhibition” value stood at 0% and the Z score is on record as 0.07.

Take `Cc1nc2c(NCCC(=O)Nc3nccs3)ncnc2o1`: the “% Inhibition” value is 4% and the Z score is on record as -0.52.

With `CCn1cc(CN2CCn3nc(CN4C[C@@H]5C[C@H]4CN5C)cc3C2)cc1C#N`, the “% Inhibition” value was 14% and the Z score was -1.81.

As for `Cc1cc(CN2CCC(Oc3ccc4ccccc4c3)(C(=O)O)CC2)ccc1O`, the “% Inhibition” value is -14% and the Z score came out at 1.8.

For `N#Cc1c(N)nc(N2CCOCC2)c(C#N)c1-c1ccccc1`, the “% Inhibition” value was found to be 2% and the Z score is on record as -0.2.

As for `O=C(c1ccco1)N1CCN(c2nnc3ccc(C(F)(F)F)cn23)CC1`, the “% Inhibition” value is listed as 25% and the Z score is -2.81.

As for `COc1cc(NC(=O)[C@H](C)NC(=O)C2CC(=O)N(c3ccccc3)C2)cc(OC)c1OC` (some centres undefined), the “% Inhibition” value was -6% and the Z score came out at 0.81.

`O=C(c1n[nH]c2ccccc12)N1C[C@H](c2nnc(-c3ccncc3)o2)C2(CCOCC2)C1`: the “% Inhibition” value is -10% and the Z score came to 1.81.

Turning to `Cc1ccc(S(=O)(=O)NC(=N)NCc2ccccc2)cc1C`, the “% Inhibition” value was -15% and the Z score is recorded as 1.43.

Take `O=C(Cn1nc2c(Oc3ccc(Cl)cc3)nccn2c1=O)NCc1ccc(F)cc1`: the “% Inhibition” value is -11% and the Z score came out at 1.03.

For `CC(C)c1nc2ccc(C(=O)NCCN3CCN(c4cccc(Cl)c4)CC3)cc2o1`, the “% Inhibition” value was -19% and the Z score came out at 3.07.

For `O=C(NCCc1csc(N2CCCC2)n1)c1cnc(C(F)(F)F)nc1`, the “% Inhibition” value is given as -5% and the Z score amounted to 0.54.

For `Cc1ccc(CCNC(=O)c2ccc(-c3nc(CS(=O)(=O)c4ccc(C)cc4)c(C)o3)cc2)cc1`, the “% Inhibition” value stood at 34% and the Z score was -4.98.

On to `O=C(Nc1nc2nc(-c3ccccc3)oc2c(=O)[nH]1)c1ccccc1`, for which the “% Inhibition” value is reported as -14% and the Z score is 1.83.

Turning to `O=C(O)c1ccc(N2CCCN(Cc3cccc(F)c3)C2=O)cc1`, the “% Inhibition” value is recorded as -10% and the Z score amounted to 1.29.

In the case of `Cc1cc(C)n(CCCc2nc(C(C)C)nn2-c2ccccn2)n1`, the “% Inhibition” value is reported as 0% and the Z score is listed as -0.08.

For the origin of these results see ChEMBL document CHEMBL4888484, “Replenishing the malaria drug discovery pipeline: Screening and hit evaluation of the MMV Hit Generation Library 1 (HGL1) against asexual blood stage Plasmodium falciparum ,using a nano luciferase reporter read-out” (2022).
